These results are taken from article PMC9911399, “Two distinct binding modes provide the RNA-binding protein RbFox with extraordinary sequence specificity”.

First the molecules themselves.
T1: RBFOX1 RRM (Homo sapiens, UniProt Q9NWB1 109-208)
T1 sequence: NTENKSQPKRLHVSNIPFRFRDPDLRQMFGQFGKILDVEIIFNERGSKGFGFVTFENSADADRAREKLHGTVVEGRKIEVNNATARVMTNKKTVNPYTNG

B1: GGUGGGA (DNA:RNA)
RNA: GGGAGACCGGAAUUCAGAUUGUCCGGUGGGAUUAAAUCCCGUCGUAGCCACCA
DNA 1: CAATCTGAATTCCGGTCTCCC
DNA 2: TGGTGGCTACGACGGGATT
B2: UGUCGAA (DNA:RNA)
RNA: B1 RNA with G25U, G28C, G30A
DNA 1: CAATCTGAATTCCGGTCTCCC
DNA 2: TGGTGGCTACGACGGGATT
B3: UGCCUAU (DNA:RNA)
RNA: B1 RNA with G25U, U27C, G28C, G29U, G30A, A31U
DNA 1: CAATCTGAATTCCGGTCTCCC
DNA 2: TGGTGGCTACGACGGGATT
B4: UCAUAAU (DNA:RNA)
RNA: GGGAGACCGGAAUUCAGAUUGUCCUCAUAAUUUAAAUCCCGUCGUAGCCACCA
DNA 1: CAATCTGAATTCCGGTCTCCC
DNA 2: TGGTGGCTACGACGGGATT
B5: UGGGAAA (DNA:RNA)
RNA: B1 RNA with G25U, U27G, G29A, G30A
DNA 1: CAATCTGAATTCCGGTCTCCC
DNA 2: TGGTGGCTACGACGGGATT
B6: UACGCUA (DNA:RNA)
RNA: B1 RNA with G25U, G26A, U27C, G29C, G30U
DNA 1: CAATCTGAATTCCGGTCTCCC
DNA 2: TGGTGGCTACGACGGGATT
B7: CGACAAA (DNA:RNA)
RNA: B4 RNA with U25C, C26G, U28C, U31A
DNA 1: CAATCTGAATTCCGGTCTCCC
DNA 2: TGGTGGCTACGACGGGATT
B8: GUCCUUA (DNA:RNA)
RNA: B1 RNA with G26U, U27C, G28C, G29U, G30U
DNA 1: CAATCTGAATTCCGGTCTCCC
DNA 2: TGGTGGCTACGACGGGATT
B9: UCGAGUC (DNA:RNA)
RNA: B4 RNA with A27G, U28A, A29G, A30U, U31C
DNA 1: CAATCTGAATTCCGGTCTCCC
DNA 2: TGGTGGCTACGACGGGATT
B10: UGAACCC (DNA:RNA)
RNA: B4 RNA with C26G, U28A, A29C, A30C, U31C
DNA 1: CAATCTGAATTCCGGTCTCCC
DNA 2: TGGTGGCTACGACGGGATT
B11: ACAAGCU (DNA:RNA)
RNA: B4 RNA with U25A, U28A, A29G, A30C
DNA 1: CAATCTGAATTCCGGTCTCCC
DNA 2: TGGTGGCTACGACGGGATT
B12: UCCGCAG (DNA:RNA)
RNA: B4 RNA with A27C, U28G, A29C, U31G
DNA 1: CAATCTGAATTCCGGTCTCCC
DNA 2: TGGTGGCTACGACGGGATT
B13: UCUGCCC (DNA:RNA)
RNA: B1 RNA with G25U, G26C, G29C, G30C, A31C
DNA 1: CAATCTGAATTCCGGTCTCCC
DNA 2: TGGTGGCTACGACGGGATT
B14: GCAGAUU (DNA:RNA)
RNA: B4 RNA with U25G, U28G, A30U
DNA 1: CAATCTGAATTCCGGTCTCCC
DNA 2: TGGTGGCTACGACGGGATT
B15: CAAGAAG (DNA:RNA)
RNA: B4 RNA with U25C, C26A, U28G, U31G
DNA 1: CAATCTGAATTCCGGTCTCCC
DNA 2: TGGTGGCTACGACGGGATT
B16: CCGUCGG (DNA:RNA)
RNA: B4 RNA with U25C, A27G, A29C, A30G, U31G
DNA 1: CAATCTGAATTCCGGTCTCCC
DNA 2: TGGTGGCTACGACGGGATT
B17: GCAAUGG (DNA:RNA)
RNA: B1 RNA with G26C, U27A, G28A, G29U, A31G
DNA 1: CAATCTGAATTCCGGTCTCCC
DNA 2: TGGTGGCTACGACGGGATT
B18: GAUCACC (DNA:RNA)
RNA: B1 RNA with G26A, G28C, G29A, G30C, A31C
DNA 1: CAATCTGAATTCCGGTCTCCC
DNA 2: TGGTGGCTACGACGGGATT
B19: GACAUCA (DNA:RNA)
RNA: B1 RNA with G26A, U27C, G28A, G29U, G30C
DNA 1: CAATCTGAATTCCGGTCTCCC
DNA 2: TGGTGGCTACGACGGGATT
B20: CGUAAGG (DNA:RNA)
RNA: B1 RNA with G25C, G28A, G29A, A31G
DNA 1: CAATCTGAATTCCGGTCTCCC
DNA 2: TGGTGGCTACGACGGGATT
B21: AAGAAGA (DNA:RNA)
RNA: B1 RNA with G25A, G26A, U27G, G28A, G29A
DNA 1: CAATCTGAATTCCGGTCTCCC
DNA 2: TGGTGGCTACGACGGGATT
B22: CAGAUGG (DNA:RNA)
RNA: B1 RNA with G25C, G26A, U27G, G28A, G29U, A31G
DNA 1: CAATCTGAATTCCGGTCTCCC
DNA 2: TGGTGGCTACGACGGGATT
B23: CAUCCAG (DNA:RNA)
RNA: B1 RNA with G25C, G26A, G28C, G29C, G30A, A31G
DNA 1: CAATCTGAATTCCGGTCTCCC
DNA 2: TGGTGGCTACGACGGGATT
B24: UGAAAUU (DNA:RNA)
RNA: B4 RNA with C26G, U28A, A30U
DNA 1: CAATCTGAATTCCGGTCTCCC
DNA 2: TGGTGGCTACGACGGGATT
B25: ACGGUUC (DNA:RNA)
RNA: B1 RNA with G25A, G26C, U27G, G29U, G30U, A31C
DNA 1: CAATCTGAATTCCGGTCTCCC
DNA 2: TGGTGGCTACGACGGGATT
B26: ACGGCAA (DNA:RNA)
RNA: B1 RNA with G25A, G26C, U27G, G29C, G30A
DNA 1: CAATCTGAATTCCGGTCTCCC
DNA 2: TGGTGGCTACGACGGGATT
B27: AAGAACC (DNA:RNA)
RNA: B4 RNA with U25A, C26A, A27G, U28A, A30C, U31C
DNA 1: CAATCTGAATTCCGGTCTCCC
DNA 2: TGGTGGCTACGACGGGATT
B28: CGCCAUU (DNA:RNA)
RNA: B4 RNA with U25C, C26G, A27C, U28C, A30U
DNA 1: CAATCTGAATTCCGGTCTCCC
DNA 2: TGGTGGCTACGACGGGATT
B29: ACCCCGA (DNA:RNA)
RNA: B1 RNA with G25A, G26C, U27C, G28C, G29C
DNA 1: CAATCTGAATTCCGGTCTCCC
DNA 2: TGGTGGCTACGACGGGATT
B30: CAAGAUG (DNA:RNA)
RNA: B4 RNA with U25C, C26A, U28G, A30U, U31G
DNA 1: CAATCTGAATTCCGGTCTCCC
DNA 2: TGGTGGCTACGACGGGATT
B31: UAAUAAU (DNA:RNA)
RNA: B4 RNA with C26A
DNA 1: CAATCTGAATTCCGGTCTCCC
DNA 2: TGGTGGCTACGACGGGATT

Numbering of substitutions follows the chain as printed; changes in the protein carry UniProt numbers. The list shows a part of the results.

The test has as its target T1, RBFOX1 RRM. The experiment in a line: EMSA; HiTS-Eq, 1 nM pool, 10 min; buffer printed only for the single-RNA assays: 10 mM Tris pH 7.5, 150 mM NaCl, 3.4 mM EDTA, 0.001% NP-40, 30 C. The conditions noted are these: tags: His6 N-terminal (pET28a); label: 5' 32P. In short, it runs like this: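 These values rest on relative association constants, computed from read-count changes of each RNA species versus the control reaction and normalised to the cognate motif. Reads came from free RNA recovered by 8% native PAGE after purified RbFox RRM (wild type or mutant) at increasing concentrations was equilibrated for 10 min in 50 µL with 1 nM of a 5′-radiolabelled pool with 7 randomized nucleotides and DNA-annealed flanks.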
For the molecule B1, the binding signal is 0.0125 KA relative to UGCAUGU. Turning to B2, the binding signal was 0.0215 KA relative to UGCAUGU. Then B3, with 0.0165 KA relative to UGCAUGU.

As for B4, the binding signal was 0.000195 KA relative to UGCAUGU. The figure for B5 is 0.0273 KA relative to UGCAUGU. The figure for B6 is 0.00478 KA relative to UGCAUGU; for B7 it is 0.00428 KA relative to UGCAUGU. Then B8, with 0.00586 KA relative to UGCAUGU.

With B9, the binding signal was 0.0142 KA relative to UGCAUGU. As to B10, the binding signal was 0.00441 KA relative to UGCAUGU. On to B11, for which the binding signal is 0.0027 KA relative to UGCAUGU. For the molecule B12, the binding signal was 0.0128 KA relative to UGCAUGU. The figure for B13 is 0.0116 KA relative to UGCAUGU; for B14 it is 0.00839 KA relative to UGCAUGU. The figure for B15 is 0.00743 KA relative to UGCAUGU; for B16 it is 0.0118 KA relative to UGCAUGU; for B17 it is 0.0146 KA relative to UGCAUGU. Then B18, with 0.00724 KA relative to UGCAUGU. Regarding B19, the binding signal was 0.00555 KA relative to UGCAUGU. Then B20, with 0.00625 KA relative to UGCAUGU; and B21, with 0.00545 KA relative to UGCAUGU; and B22, with 0.01 KA relative to UGCAUGU. Then B23, with 0.00084 KA relative to UGCAUGU. Then B24, with 0.00973 KA relative to UGCAUGU; and B25, with 0.0146 KA relative to UGCAUGU.

For the molecule B26, the binding signal is 0.00895 KA relative to UGCAUGU.

As for B27, the binding signal was 0.00442 KA relative to UGCAUGU. The figure for B28 is 0.00624 KA relative to UGCAUGU; for B29 it is 0.00179 KA relative to UGCAUGU; for B30 it is 0.00651 KA relative to UGCAUGU. On to B31, for which the binding signal was 0.00384 KA relative to UGCAUGU.
